For one data set, the system named is TRPV1. The settings on record: Ca2+ influx assay; cited from earlier work.
In data set [1] the test system is male and female C57BL/6 mice. Kind of data set: Hotplate thermal assay after systemic s.c. injection. The settings on record: 2 mg/kg s.c., 2 h before 49 °C hotplate, male mice only; P = 0.0072.
The subject of data set [2] is primary mouse dorsal root ganglion (DRG) neurons (TRPV1-sensitive). Nature of the data set: Ca2+ imaging in primary mouse dorsal root ganglion. It counts as cell-based.
Data set [3] concerns male and female C57BL/6 mice (eye). Nature of the data set: Rodent eye wiping pungency assay. It is filed as in vivo, mouse. The settings on record: relative pain-producing potency with capsaicin set to 100.
The conditions of data set [4]: cited from earlier work.
The subject of another data set is mice. The settings on record: s.c. administration in mice; cited from earlier work.
For the next data set, the system named is CD-1 female mice. The settings on record: 6 mg/kg s.c.; cited from earlier work.
Another data set in a line: Aqueous solubility. It is filed as physicochemical. The settings on record: YB-2 tested as a HCl salt.
Another data set in a line: Mouse plasma stability. It counts as in vitro ADME. As to conditions: C57BL6, mouse.

As usually defined, the EC50 is the concentration at which the effect is half-maximal. `COc1cc(CN(C)C(=O)CCCCC=CC(C)C)ccc1O` [3d]: the EC50 with TRPV1 was above 100 µM.
As a reminder, the LD50 is the dose at which mortality reaches 50%. Regarding `COc1cc(CNC(=O)CCCCC=CC(C)C)ccc1O` [capsaicin, 8-methyl-N-vanillyl-6-nonenamide], the “maximum possible effect (%MPE) vs vehicle” value in [1] is reported as “significantly higher than that of the vehicle control”. The mean peak fluorescence in [2] (0.5 μM, initial experiment (data not shown)) turned out to be 4.00 ± 0.38. Besides, in data set [2] (first application 0.5 μM compound, then 0.5 μM capsaicin about 7.5 min later), the “TRPV1-sensitive neurons showing desensitization” value is 96%. Also, the “Pungency (RPP)” value in data set [3] is listed as 100. For the same compound, the aqueous solubility in [4] is given as 0.0013 g/100 mL. The LD50 in the data set on mice is listed as 9 mg/kg. The “latency in the hotplate assay” value in the data set with CD-1 female mice is recorded as “increased latency in the hotplate assay”. The solubility in the data set “Aqueous solubility” was 0.0013 g/l00 mL.
As usually defined, the amount remaining is the share of the starting amount still present when the sample was taken. The low end stands for more turnover, the high end for less turnover. Take `CC[C@H](C)C(=O)O[C@H]1C[C@@H](C)C=C2C=C[C@H](C)[C@H](CC[C@@H]3C[C@@H](O)CC(=O)O3)[C@H]21` [lovastatin]: the amount remaining at 120 min in the data set “Mouse plasma stability” came to 0.2%.
`CC(C)[N+](C)(CCOC(=O)C1c2ccccc2Oc2ccccc21)C(C)C` [propantheline] showed a share remaining at 120 min in the data set “Mouse plasma stability” of 20%.
